{
  "source": "PubChem BioAssay (NCI)",
  "note": "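Cultured in 96-well plates, cells were exposed to test compound for 48 hours across five concentrations. The concentration for 50% growth inhibition is given as GI50. TGI marks complete inhibition of growth.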",
  "data": [
    {"tested_on": "NCI-H322M lung", "assay": "DTP human tumour cell line panel, 48 h", "units": {"GI50": "µM", "TGI": "µM"}, "values": [
      {"smiles": "c1ccc(C(=C(c2ccc(OCCN3CCCCC3)cc2)c2ccc(OCCN3CCCCC3)cc2)C2CCCC2)cc1", "GI50": 6.25, "TGI": "> 18"},
      {"smiles": "CSc1ccc(C(=O)Nc2ccc3nnn(/C(C#N)=C/c4ccccn4)c3c2)cc1", "GI50": 4.46, "TGI": 16.3},
      {"smiles": "CN1CCN(c2ccc(C(=O)/C=C/c3cc(C(F)(F)F)cc(C(F)(F)F)c3)cc2)CC1", "GI50": 1.65, "TGI": 3.43},
      {"smiles": "CNC(=O)c1cc(Oc2ccc3nc(NC(=O)Nc4cccc(OC(F)(F)F)c4)sc3c2)ccn1", "GI50": 3.61, "TGI": "> 100"},
      {"smiles": "CCCn1c(=O)c2[nH]c(-c3ccc(OCc4nc5ccc(C)cc5[nH]4)cc3)nc2n(CCC)c1=O", "GI50": 15.8, "TGI": "> 100"}
    ]}
  ]
}
